The whole screen tested about 200,000 compounds, of which about 10 (0.005%) were called active. This list was built around the results that the source calls inconclusive (neither active nor inactive); the mix of calls is not that of the screen. The call rests on the fitted dose curve; in most records, active means well fitted inhibition curve with a large enough effect; inconclusive means small, poorly fitted or top-dose-only effect, or effect the other way, or another doubt; inactive means no such curve, though single readings can be large or run the other way. Where the call is inconclusive, the potency comes from a doubtful curve fit.
biological target: Lysosomal alpha-glucosidase (Homo sapiens) (UniProt P10253); assay: qHTS Assay for Inhibitors of Human alpha-Glucosidase as a Potential Chaperone Treatment of Pompe Disease; details: purified human GAA, 4-MU-alpha-glucoside fluorescence; activity change, negative = inhibition: at 76.9 µM (top of the series) unless noted;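 on activity change, negative = inhibition: plate controls were uninhibited enzyme wells for no effect and no-enzyme background for full effect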
In short: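 Endpoint fluorogenic read: 20 min room-temperature reaction of 4 nM human alpha-glucosidase with 400 uM 4-methylumbelliferyl-alpha-D-pyranoside, pH 5.0, quenched with 1M NaOH/1M glycine pH 10. AC50 from Hill modeling.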
Potency means the concentration at half of the fitted maximal effect; tags describe the fitted curve by direction and shape.

Row | Compound | Potency | activity change, negative = inhibition
1 | COCCCNC(=S)NCCCNc1nc2cc3c(cc2cc1C#N)OCO3 | inconclusive: 17.8 µM [activator, partial curve] | –
2 | C/C(=N\NC(=O)CC#N)c1cc2ccc(O)cc2oc1=O | inconclusive: 35.5 µM [activator, partial curve] | –
3 | O=C(CN1CCN(S(=O)(=O)c2ccc(Cl)cc2)CC1)Nc1ccc(N2CCOCC2)cc1 | – | inconclusive: -16.3% [inhibitor]
4 | Cc1ccc(-c2nn(-c3ccccc3)cc2/C=C/C(=O)Nc2cccc(S(N)(=O)=O)c2)cc1 | inconclusive: 50.1 µM [activator, single point] | –
5 | Cc1ccc(C(C(=O)NCc2ccco2)N(C(=O)Cn2nnc3ccccc32)c2ccccc2)o1 (centres undefined) | inconclusive: 25.1 µM [inhibitor, partial curve] | –
6 | Cc1cccc(S(=O)(=O)C(C#N)c2nc3ccccc3nc2N2CCCC2)c1 (centres undefined) | – | inconclusive: 26.8% [activator]
7 | O=C(COc1ccccc1)Nc1ncccn1 | inconclusive: 20 µM [inhibitor, partial curve] | –
8 | N#Cc1c(SCc2ccc(Cl)cc2)sc(C(=O)c2ccccc2)c1N | inconclusive: 2.51 µM [inhibitor, single point] | –
9 | O=C(NCNC(=O)c1ccccc1)c1ccccc1 | inconclusive: 11.2 µM [inhibitor, single point] | –
10 | Cc1ccc(Cn2ccc(NC(=O)c3cc(-c4ccccc4)on3)n2)cc1 | inconclusive: 50.1 µM [inhibitor, single point] | –
11 | CCOC(=O)C1(CCCc2ccccc2)CCN(C(=O)C2CCCO2)CC1 (centres undefined) | – | inconclusive: 5.9% [activator]
12 | CCc1cc(=O)oc2c(CN3CCCC3)c(O)c(Cl)cc12 | inconclusive: 39.8 µM [activator, partial curve] | –
13 | Fc1cccc(NC(=S)NNc2c3ccccc3nc3ccccc23)c1 | inconclusive: 14.1 µM [activator, partial curve] | –
14 | CN(C)/C=C1/C=C(C=O)OC1=O | – | inconclusive: -17.1% [inhibitor]
15 | CCOC(=O)c1c(C)[nH]c(C)c1C(=O)COC(=O)c1cccc(C)c1O | inconclusive: 50.1 µM [inhibitor, single point] | –
16 | COc1ccc(NC(=S)NCC(O)c2ccccc2)c(OC)c1 (centres undefined) | inconclusive: 44.7 µM [inhibitor, single point] | –
17 | COC(=O)c1cc(NC(=O)CN(c2cccc(OC)c2)S(=O)(=O)c2ccccc2)ccc1Cl | inconclusive: 11.2 µM [inhibitor, single point] | –
18 | CCOc1cc(CO)cc(Br)c1OCC(=O)Nc1ccccc1C | – | inconclusive: 15.4% [activator]
19 | CCOc1cc(C2C(C(=O)O)c3cc(OCC)c(OCC)cc3C(=O)N2C)ccc1O (centres undefined) | inconclusive: 0.891 µM [inhibitor, partial curve, poor fit] | –
20 | CCN(CC(=O)Nc1ccccc1OC)CC(=O)Nc1ccccc1-c1ccccc1 | inconclusive: 31.6 µM [inhibitor, single point] | –
21 | CCCN(CCC)C(=O)CC(c1ccccc1)c1ccc(C)cc1O (centres undefined) | – | inconclusive: -19.1% [inhibitor]
22 | Cc1nc2ccccc2nc1OCC(=O)NCC(F)(F)F | inconclusive: 31.6 µM [activator, single point] | –

Row | Compound | Potency | activity change, negative = inhibition
23 | CCCCCCCN=CC1=C(O)CC(c2ccccc2)CC1=O (centres undefined) | – | inconclusive: -15.1% [inhibitor]
24 | N#CC1=C(SCC(=O)c2ccc(Cl)cc2)NC2=C(C(=O)CCC2)C1c1ccco1 (centres undefined) | inconclusive: 39.8 µM [inhibitor, partial curve] | –
25 | COc1cc(C2C3=C(CCCC3=O)Nc3[nH]n(-c4ccccc4)c(=O)c32)ccc1O (centres undefined) | – | inactive: 3.11%
26 | Cc1cc(C)nc(N(C#N)CN2C(=O)c3ccccc3C2=O)n1 | inconclusive: 31.6 µM [activator, partial curve] | –
27 | COc1ccccc1OCCC(=O)OCC(=O)Nc1cc(S(=O)(=O)N2CCOCC2)ccc1Cl | inconclusive: 28.2 µM [inhibitor, single point] | –
28 | Nc1c(-c2ccccc2)n[nH]c1-c1ccccc1 | – | inactive: 0.977%
29 | COc1ccc(-c2nnn(CC(=O)N(c3cccc(O)c3)C(C)C(=O)NC3CCCC3)n2)cc1OC (centres undefined) | inconclusive: 31.6 µM [inhibitor, single point] | –
30 | Nc1nc2n(n1)C(c1cccs1)CC(c1ccccc1)N2 (centres undefined) | inconclusive: 10 µM [inhibitor, partial curve] | –
31 | NC(=O)C1CCN(C(=S)c2ccc(-c3ccc(Br)cc3)o2)CC1 | – | inactive: -2.43%
32 | COc1ccc2nc(SCC(=O)Nc3ccc(S(=O)(=O)Nc4nccc(C)n4)cc3)[nH]c2c1 | – | inconclusive: 21.3% [activator]
33 | CCN(CC)P(=O)(C(NC(=O)OC)C(F)(F)C(F)(F)C(F)(F)C(F)F)N(CC)CC (centres undefined) | inconclusive: 6.31 µM [inhibitor, single point] | –
34 | COCCCNC(=O)c1ccc(CNS(=O)(=O)c2ccc(NC(C)=O)cc2)cc1 | – | inconclusive: -7.97% [inhibitor] [at 15.4 µM]
35 | COc1ccc(OC)c(S(=O)(=O)n2nc(C)cc2C)c1 | inconclusive: 56.2 µM [inhibitor, single point] | –
36 | CCN(CC)S(=O)(=O)c1ccc(N/N=C/c2cc(OC)c(OC)cc2OC)nc1 | inconclusive: 44.7 µM [activator, single point] | –
37 | Cc1ccc(C(=O)N2CCN(C(=O)c3ccccc3)C2c2ccc(N(C)C)cc2)cc1 (centres undefined) | inconclusive: 56.2 µM [inhibitor, single point] | –
38 | CC(=O)c1sc(NC(=O)c2ccc(F)c(F)c2)nc1C | inconclusive: 56.2 µM [inhibitor, single point] | –
39 | CC(NC(=O)COC(=O)Cc1ccc(-c2ccccc2)cc1)c1ccccc1 (centres undefined) | inconclusive: 50.1 µM [inhibitor, single point] | –
40 | COc1ccc(C(C)=O)cc1COC(=O)c1c(C)noc1C | inconclusive: 5.62 µM [inhibitor, single point] | –
41 | CSC1=C(C#N)C(c2cccs2)CC(=O)N1C (centres undefined) | inconclusive: 56.2 µM [activator, single point] | –
42 | Cc1cc(C)cc(OCC(O)CN2CCC(CN3C(=O)c4cccc5cccc(c45)C3=O)CC2)c1 (centres undefined) | inconclusive: 50.1 µM [inhibitor, single point] | –
43 | CCOC(=O)c1sc2nc(N3CCCC3)c3c(c2c1N)CC(C)(C)OC3 | inconclusive: 1 µM [activator, partial curve] | –
44 | Cc1cc(=O)oc2cc(OCCSc3nnc(-c4ccccc4)o3)ccc12 | inconclusive: 5.62 µM [inhibitor, single point] | –

Row | Compound | Potency | activity change, negative = inhibition
45 | Cn1cccc1Cc1nnc(SCC(=O)Nc2ccc3c(c2)OCCO3)n1CCc1ccccc1 | inconclusive: 14.1 µM [inhibitor, partial curve] | –
46 | COc1ccc2[nH]c3c(N4CCC(O)(c5cccc(C(F)(F)F)c5)CC4)ncnc3c2c1 | inconclusive: 12.6 µM [activator, partial curve] | –
47 | Cc1cccc(CNc2ncc(-c3cccc([N+](=O)[O-])c3)n2C)c1 | – | inactive: -1.14%
48 | CC(C(=O)NC1CCCC1)N(Cc1ccco1)C(=O)c1snc(C(=O)NC2CCCC2)c1N (centres undefined) | inconclusive: 56.2 µM [inhibitor, partial curve, poor fit] | –
49 | CCOC(=O)c1ccc(Oc2nc(NC(C)(C)C)nc(N(C)C)n2)cc1 | inconclusive: 56.2 µM [inhibitor, single point] | –
50 | CCN1CCN(C(=O)CCc2nnc(CCCCc3ccccc3)o2)[C@@H](C)C1=O | – | inconclusive: 17.1% [activator]
51 | Cc1cc(C)nc(-n2nc(C)cc2NC(=O)CN2CCc3ccccc3C2)n1 | inconclusive: 25.1 µM [inhibitor, partial curve] | –
52 | O=C(CN(c1ccc(Cl)c(C(F)(F)F)c1)S(=O)(=O)c1ccccc1)N/N=C/c1cccc2c1OCCO2 | inconclusive: 50.1 µM [inhibitor, single point] | –
53 | COc1ccc2c(c1OC)C(=O)OC2CC(=O)c1ccc(N(C)C)cc1 (centres undefined) | inconclusive: 28.2 µM [inhibitor, single point] | –
54 | COc1cccc(-c2ccc(SCC(=O)N3CCN(c4ccccc4)CC3)nn2)c1 | – | inactive: -0.133%
55 | CCSc1ccc(-c2nn(-c3ccccc3)cc2/C=C(/C#N)C(=O)NCCCOC)cc1 | inconclusive: 35.5 µM [activator, partial curve] | –
56 | OCCC1CN(Cc2c(F)cccc2Cl)CCN1C1CCCC1 (centres undefined) | – | inconclusive: -17% [inhibitor]
57 | CCc1ccc2[nH]c3nc(C)cc(C)c3c(=O)c2c1 | – | inconclusive: 20.9% [activator]
58 | O=C1Nc2ccccc2C(O)(C(=O)NCc2ccco2)N1c1ccc(Cl)c(Cl)c1 (centres undefined) | – | inconclusive: 14.9% [activator]
59 | Cc1cc(C(=O)Cn2nc(C(=O)O)c3ccccc3c2=O)c(C)n1C1CC1 | – | inactive: -12.1%
60 | CCn1c(=O)c2cc(C(=O)Nc3cc(C)on3)sc2c2ccccc21 | inconclusive: 56.2 µM [inhibitor, partial curve, poor fit] | –
61 | Cc1ccc(NS(=O)(=O)c2ccccc2[N+](=O)[O-])cc1C | inconclusive: 39.8 µM [inhibitor, single point] | –
62 | COc1ccc2nc(C)cc(SCC(=O)N3CCCCC3)c2c1 | – | inconclusive: 16.8% [activator]
63 | CCOC(=O)C1CCN(C(=O)CN(C)S(=O)(=O)c2cc(C)ccc2OC)CC1 | inconclusive: 0.794 µM [inhibitor, full curve, poor fit] | –
64 | CCc1c(C)nc(SCC(=O)N2C(C)CCCC2C)[nH]c1=O (centres undefined) | inconclusive: 0.199 µM [activator, full curve, poor fit] | –

Reference: PubChem BioAssay AID1466 (National Center for Advancing Translational Sciences (NCATS), 2008)
